Experimental data: PMC4336329 (PLoS ONE, 2015)
The whole screen tested about 310,000 compounds, of which about 14,000 (4.5%) showed an effect of 50% or more. The effect is printed as a negative number. The list shows a part of the results.

target: human ether-à-go-go-related gene (hERG) potassium channel (human, UniProt Q12809); assay: primary screen, population patch clamp on CHO cells stably expressing hERG
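Also: peak tail current of the secondary pulse compared with the same well before compound.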

Chain of human ether-à-go-go-related gene (hERG) potassium channel (Q12809 whole entry, looked up): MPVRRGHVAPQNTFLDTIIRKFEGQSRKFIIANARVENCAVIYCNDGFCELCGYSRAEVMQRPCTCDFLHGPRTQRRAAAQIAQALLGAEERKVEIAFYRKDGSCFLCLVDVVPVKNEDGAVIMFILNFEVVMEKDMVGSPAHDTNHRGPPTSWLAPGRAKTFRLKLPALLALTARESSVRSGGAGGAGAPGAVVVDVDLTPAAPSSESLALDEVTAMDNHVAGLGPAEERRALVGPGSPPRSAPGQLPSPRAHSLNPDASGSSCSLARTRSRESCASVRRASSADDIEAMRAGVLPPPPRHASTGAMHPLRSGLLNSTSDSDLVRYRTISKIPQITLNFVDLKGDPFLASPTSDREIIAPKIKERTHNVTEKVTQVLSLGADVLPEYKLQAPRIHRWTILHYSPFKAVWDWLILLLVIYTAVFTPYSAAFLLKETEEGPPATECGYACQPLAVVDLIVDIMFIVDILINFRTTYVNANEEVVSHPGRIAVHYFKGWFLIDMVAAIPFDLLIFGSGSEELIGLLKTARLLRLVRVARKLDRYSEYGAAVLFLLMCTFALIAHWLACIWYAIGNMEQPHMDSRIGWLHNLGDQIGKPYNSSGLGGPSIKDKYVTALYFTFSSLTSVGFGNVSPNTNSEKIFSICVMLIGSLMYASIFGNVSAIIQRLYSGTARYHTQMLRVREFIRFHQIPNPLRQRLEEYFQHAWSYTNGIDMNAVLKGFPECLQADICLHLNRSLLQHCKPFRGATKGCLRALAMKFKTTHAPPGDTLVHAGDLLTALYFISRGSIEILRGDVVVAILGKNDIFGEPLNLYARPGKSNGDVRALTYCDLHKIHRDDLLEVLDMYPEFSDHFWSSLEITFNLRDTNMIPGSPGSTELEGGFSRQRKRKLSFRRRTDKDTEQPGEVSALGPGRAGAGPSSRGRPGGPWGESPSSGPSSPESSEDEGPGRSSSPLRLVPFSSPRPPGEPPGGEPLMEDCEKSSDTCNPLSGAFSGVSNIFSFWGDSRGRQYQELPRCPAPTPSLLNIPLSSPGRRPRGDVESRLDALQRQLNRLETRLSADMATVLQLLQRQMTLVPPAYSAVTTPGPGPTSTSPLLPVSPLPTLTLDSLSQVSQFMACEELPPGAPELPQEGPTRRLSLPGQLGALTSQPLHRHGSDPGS

Row | SMILES | hERG current change (%, negative = inhibition) at 10uM
1 | O=C(O)CCCNC(=O)c1ccc(NC(=O)Cc2ccc(Cl)cc2)cc1 | 19.6%
2 | Clc1ccc(-c2csc3ncnc(NCCN4CCOCC4)c23)cc1 | -20.8%
3 | CN/C=C1\C(=O)C(C)(C)Oc2ccc3ccc(=O)oc3c21 | 10.8%
4 | Cc1ccc(-c2nnc(Nc3cccc(O)c3)c3ccccc23)cc1S(=O)(=O)NCCO | 3.55%
5 | O=C(NCCc1ccccc1)C(=O)Nc1nccs1 | -13.4%
6 | O=C(c1ccco1)N1CCN(C(=O)c2cc(-c3ccncc3)nc3ccc(Br)cc23)CC1 | -72.7%
7 | CCN(Cc1ccccc1)C(=O)COC(=O)CNC(=O)c1ccc(C)s1 | 1.42%
8 | CC(=O)/C(=N/Nc1ccccc1)Sc1nnc(C(O)c2ccccc2)n1-c1ccccc1 (centres unmarked) | -8.12%
9 | Cc1ccc(-c2nnn(CC(=O)N(c3ccccc3)C(C(=O)NCC3CCCO3)c3ccc(F)cc3)n2)o1 (centres unmarked) | 21.2%
10 | CCc1c(C)nc(SCC(N)=O)c(C#N)c1C | 3.26%
11 | CCOC(=O)N1CCN(C(=O)c2ccc3c(c2)NC(=O)/C(=C\c2cccc(C)c2)S3)CC1 | -15.7%
12 | Cc1ccsc1-c1nc(CSCC(=O)N2CCN(c3ccccc3)CC2)c(C)o1 | -21.1%
13 | O=C(NCCCn1ccnc1)/C(=C\c1cccs1)NC(=O)c1ccco1 | -45.1%
14 | COc1ccc(OC2CCN(S(=O)(=O)c3ccc(OC)cc3)CC2)cc1 | -0.158%
15 | CC(=O)Nc1ccc(S(=O)(=O)N2CCN(C(=O)Cc3ccccc3)CC2)cc1 | -1.44%
16 | CCc1c(C)nc(SCC(=O)N2CCCCC2C)[nH]c1=O (centres unmarked) | 1.22%
17 | COCCN(C(=O)c1ccccc1OC)c1nnc(C)s1 | -5.25%
18 | O=C(NCCCc1ccccc1)c1c(O)nc2sccn2c1=O | 0.864%
19 | NC(=O)c1c(NC(=O)C2c3ccccc3Oc3ccccc32)sc2c1CCCCC2 | 6.4%

Row | SMILES | hERG current change (%, negative = inhibition) at 10uM
20 | COc1ccccc1/C=N/N1C(=O)C(CC(=O)Nc2ccc([N+](=O)[O-])cc2OC)SC1=Nc1cccc(C)c1C (centres unmarked) | 16.3%
21 | CN(Cc1nc2ccccc2[nH]1)Cc1nc(CC2CC2)no1 | -14.5%
22 | COc1ccc(CC(=O)Nc2nnc(-c3cccc([N+](=O)[O-])c3)s2)cc1 | 10.8%
23 | CC(CNC(=O)Cn1ccc(NC(=O)OCc2ccccc2)nc1=O)c1ccccc1 (centres unmarked) | 11.5%
24 | O=C(CNCc1ccccn1)Nc1cc(S(=O)(=O)N2CCCCC2)ccc1Cl | -19%
25 | COc1ccc(C2c3c(noc3C)CC(C)(O)C2C(C)=O)cc1 (centres unmarked) | 5.97%
26 | CC(C)(C)c1csc(NC(=O)CS(=O)(=O)c2ccccc2)n1 | -41.8%
27 | CC(C)=N/N=c1\scc(C)n1Cc1ccco1 | -1.92%
28 | Cn1c(CN(O)S(=O)(=O)c2ccc(Cl)cc2)nnc1C(F)(F)F | 26%
29 | CN(C)CCNc1nc2sc3c(c2c(=O)n1-c1ccc(F)cc1)CCCCC3 | -33.3%
30 | Cc1cc(=O)oc2c(C)c(OCC(=O)c3ccccc3)ccc12 | 19.6%
31 | COC(=O)C1=C(N)Oc2cc(C)n(Cc3cccnc3)c(=O)c2C1c1ccc(OC)c(OC)c1OC (centres unmarked) | 2.11%
32 | CC1CCCCC1NC(=O)COc1ncnc2sccc12 (centres unmarked) | 3.61%
33 | C=CCSc1nc(C)cc(/C=C\c2ccccc2)c1C#N | -18.9%
34 | CCOC(=O)c1cncn1C(C)c1ccccc1 (centres unmarked) | 13.3%
35 | Cc1ncc(N=Nc2ccc(F)cc2)c(-c2ccc(Cl)cc2)n1 | 4.91%
36 | Cl.O=C(c1ccccc1)C(CN1CCCC1)c1ccccc1 (centres unmarked) | 3.46%
37 | Cc1onc(-c2c(F)cccc2Cl)c1C(=O)NCc1ccco1 | 16.7%
38 | CCOC(=O)N1CCC(NC(=O)CCCC(=O)O)CC1 | 18.9%

Row | SMILES | hERG current change (%, negative = inhibition) at 10uM
39 | COC(=O)c1sc(S(=O)(=O)N2CCN(c3ccccc3)CC2)c(C(=O)OC)c1C | -10.7%
40 | C=CCn1c(SCC(=O)NC2CCS(=O)(=O)C2)nnc1-c1ccc(Cl)cc1 (centres unmarked) | -15.4%
41 | CN(CC(=O)Nc1ccccc1Br)C(=O)c1sccc1-c1ccccc1 | -19.4%
42 | COc1ccccc1-c1nnc(SCC(=O)Nc2ccc(Cl)cc2Cl)o1 | -26.2%
43 | COc1cc(/C=N/NC(=O)c2cccnc2)ccc1OCC(=O)Nc1ccc(C)cc1 | 12.3%
44 | NC(=O)CSc1nc2ccccc2n1-c1ccccc1 | -4.72%
45 | COc1ccc2c(c1)C1=NN(/C(C)=C\C(C)=O)C(c3ccccc3)C1CC2 (centres unmarked) | -5.61%
46 | Cc1cccc(OCC(=O)OC(C)CN2CCCCC2)c1.Cl (centres unmarked) | -17.7%
47 | CCOC(=O)N1CCN(Cc2cn[nH]c2-c2cccc3ccccc23)CC1 | -4.57%
48 | O=[N+]([O-])c1ccc(OC(F)F)c(/C=N/n2cnnc2)c1 | 5.21%
49 | CSCCC(NC(=O)c1ccc(Cl)cc1)C(=O)OCC(=O)NCc1ccco1 (centres unmarked) | -23.8%
50 | COc1cccc(CN2C[C@]34C=C[C@@H](C[C@@H]3S2(=O)=O)O4)c1 | -0.728%
51 | COc1cccc(-c2c(C#N)c(SC)nc3cc(C)nn23)c1 | 0.381%
52 | Cc1cc(C(F)F)n2nc(C(=O)Nc3ccccc3Br)nc2n1 | -7.89%
53 | O=C(NC1CCCCC1)C(c1ccccc1)N(Cc1ccco1)C(=O)c1csnn1 (centres unmarked) | -25.6%
54 | COC(=O)c1ccc(NC(=O)CSc2nc(C)cc(=O)[nH]2)cc1 | 14.4%
55 | CCOC(=O)c1cnc(SCC(=O)OCC(=O)NC2CCS(=O)(=O)C2)nc1N (centres unmarked) | 10.9%
56 | Cc1ccccc1NC(=O)NCCCN1CCN(c2ccccc2)CC1 | -50.7%
